From ChEMBL document CHEMBL4888484, “Replenishing the malaria drug discovery pipeline: Screening and hit evaluation of the MMV Hit Generation Library 1 (HGL1) against asexual blood stage Plasmodium falciparum ,using a nano luciferase reporter read-out” (2022)
Screen size: about 150,000 compounds; about 540 (0.36%) showed an effect of 50% or more. Some of the results follow.

What follows are compounds tested on Plasmodium falciparum (assay: Primary screen in NF54 nanoGlo assay, in single point, at 2uM, 72h; a lower Z score goes with more inhibition). Settings: timepoint 72 hour.
Format: functional, Erythrocyte

| Compound | % Inhibition [%] | Z score |
| --- | --- | --- |
| O=C(CN1CCc2nocc2C1)N1CCCCC1 | 8 | -0.99 |
| CCCc1nc(C(=O)N2CCNC(=O)[C@@H]2Cc2ccccc2)cs1 | 0 | 0.03 |
| O=C(COc1ccccc1-c1nnc[nH]1)NCc1ccco1 | 29 | -3.25 |
| CCOC(=O)c1ccc2nc(-c3cccc(OC)c3)cc(OCC(=O)Nc3ccc(Cl)cc3)c2c1 | -8 | 1.34 |
| O=S(=O)(Nc1cccc2cccnc12)c1cccs1 | 55 | -5.93 |
| CO[C@@]1(C)CCCN(C(=O)NCC2(CC#N)CC2)CC1 | -15 | 1.24 |
| Cn1cc(CN2CC[C@H](c3nc4ccccc4[nH]3)C2)c2ccccc21 | 33 | -3.77 |
| CC1CN(C(=O)C2(C(F)(F)F)CCC2)C1 | 6 | -0.99 |
| CC1(C)CN(CC(=O)NC2CCCC2)c2ccccc2O1 | -7 | 1.02 |
| O=C(NCC#CCOc1ccc2c(c1)OCO2)c1ccc(=O)[nH]c1 | -15 | 1.95 |
| CCOCC(O)CN(C)CC(C)c1ccccc1 (stereo not drawn) | -3 | 0.37 |
| CC(C)(C)c1csc(Cn2cncc(Br)c2=O)n1 | -19 | 2.37 |
| CNc1snc(C)c1C(=O)Nc1nc(C(C)C)cs1 | -7 | 1.01 |
| CC1CC(C)CN(C(=O)CNC2(c3nccs3)CCCC2)C1 (stereo not drawn) | -11 | 1.73 |
| Cc1cc(C(=O)NC[C@H]2CCCN(c3ncc(C#N)c(N)n3)C2)no1 | -11 | 1.23 |
| O=C(Nc1ccc2oc(-c3ccc(Cl)cc3Cl)nc2c1)c1cc(-n2cnnc2)ccc1Cl | 1 | -0.12 |
| O=c1[nH]c2cc(Br)cnc2[nH]1 | -5 | 0.61 |
| COc1ccc(C(=O)N2C[C@H](O)[C@@H](N(C)Cc3cnccn3)C2)cc1 | 13 | -1.66 |
| CN(C)c1ccc(C(=O)N2CCC(Cn3cnc(C4CC4)cc3=O)CC2)nn1 | -12 | 1.72 |
| C=CCn1cc(CNCC2(CC(C)C)CCC2)cn1 | -3 | 0.59 |
| COc1ccc(Cn2nc(C)nc2[C@@H]2CCCN3CCCC[C@H]23)cc1 | -15 | 1.97 |
| COc1ccccc1C(=O)N[C@@]1(C(F)(F)F)Nc2nc3ccccc3n2C1=O | 1 | -0.2 |
| O=C(C[C@H](c1ccc(Cl)c(Cl)c1)c1c[nH]c2ccc(Cl)cc12)Nc1ccccc1 | 1 | -0.11 |
| COc1ccccc1CNc1nc(-c2nonc2N)no1 | -7 | 0.92 |
